# Laboratory results as given in the supplement of paper PMC8728848.
# This is one part of the list.
# Tests used:
# Test in all cases: glycan array binding signal (z-score within array); higher = stronger binding
# Details in all cases: glycan notation: IUPAC condensed, linker removed
# Fuc(a1-2)Gal(b1-4)Glc6S = target: Fuc(a1-2)Gal(b1-4)Glc6S
# Outline: (§1)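 Columns mapping to the same glycan were averaged after glycan names were converted to IUPAC-condensed notation. The data come from 3228 arrays in the Consortium for Functional Glycomics database, limited to those with an available protein sequence. Binding is reported as a within-array Z-score averaged across arrays of one protein sequence and across linkers.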
# Fuc(a1-2)Gal(b1-4)GlcNAc = target: Fuc(a1-2)Gal(b1-4)GlcNAc
# Outline: as §1
# [1] = target: Fuc(a1-2)Gal(b1-4)GlcNAc(b1-2)Man
# Outline: as §1
# [2] = target: Fuc(a1-2)Gal(b1-4)GlcNAc(b1-2)Man(a1-3)[Fuc(a1-2)Gal(b1-4)GlcNAc(b1-2)Man(a1-6)]Man(b1-4)GlcNAc(b1-4)GlcNAc
# Outline: as §1
# [3] = target: Fuc(a1-2)Gal(b1-4)GlcNAc(b1-2)Man(a1-3)[Fuc(a1-2)Gal(b1-4)GlcNAc(b1-2)Man(a1-6)]Man(b1-4)GlcNAc(b1-4)[Fuc(a1-6)]GlcNAc
# Outline: as §1
# [4] = target: Fuc(a1-2)Gal(b1-4)GlcNAc(b1-2)[Fuc(a1-2)Gal(b1-4)GlcNAc(b1-4)]Man(a1-3)[Fuc(a1-2)Gal(b1-4)GlcNAc(b1-2)Man(a1-6)]Man(b1-4)GlcNAc(b1-4)GlcNAc
# Outline: as §1
# [5] = target: Fuc(a1-2)Gal(b1-4)GlcNAc(b1-3)Gal(b1-4)GlcNAc
# Outline: as §1
# [6] = target: Fuc(a1-2)Gal(b1-4)GlcNAc(b1-3)Gal(b1-4)GlcNAc(b1-2)Man(a1-3)[Fuc(a1-2)Gal(b1-4)GlcNAc(b1-3)Gal(b1-4)GlcNAc(b1-2)Man(a1-6)]Man(b1-4)GlcNAc(b1-4)GlcNAc
# Outline: as §1
# [7] = target: Fuc(a1-2)Gal(b1-4)GlcNAc(b1-3)Gal(b1-4)GlcNAc(b1-3)Gal(b1-4)GlcNAc
# Outline: as §1
# [8] = target: Fuc(a1-2)Gal(b1-4)GlcNAc(b1-3)GalNAc
# Outline: as §1
# [9] = target: Fuc(a1-2)Gal(b1-4)GlcNAc(b1-3)[Fuc(a1-2)Gal(b1-4)GlcNAc(b1-6)]GalNAc
# Outline: as §1
# [10] = target: Fuc(a1-2)Gal(b1-4)GlcNAc(b1-3)[Fuc(a1-3)[Gal(b1-4)]GlcNAc(b1-6)]Gal(b1-4)Glc
# Outline: as §1
# [11] = target: Fuc(a1-2)Gal(b1-4)GlcNAc(b1-6)GalNAc
# Outline: as §1
# [12] = target: Fuc(a1-2)Gal(b1-4)GlcNAc6S
# Outline: as §1
# [13] = target: Fuc(a1-2)Gal(b1-4)[Fuc(a1-3)]GlcNAc
# Outline: as §1
# [14] = target: Fuc(a1-2)Gal(b1-4)[Fuc(a1-3)]GlcNAc(b1-2)Man(a1-3)[Fuc(a1-2)Gal(b1-4)[Fuc(a1-3)]GlcNAc(b1-2)Man(a1-6)]Man(b1-4)GlcNAc(b1-4)[Fuc(a1-6)]GlcNAc
# Outline: as §1
# [15] = target: Fuc(a1-2)Gal(b1-4)[Fuc(a1-3)]GlcNAc(b1-2)[Fuc(a1-2)Gal(b1-4)[Fuc(a1-3)]GlcNAc(b1-4)]Man(a1-3)[Fuc(a1-2)Gal(b1-4)[Fuc(a1-3)]GlcNAc(b1-2)Man(a1-6)]Man(b1-4)GlcNAc(b1-4)GlcNAc
# Outline: as §1
# [16] = target: Fuc(a1-2)Gal(b1-4)[Fuc(a1-3)]GlcNAc(b1-3)Gal(b1-4)[Fuc(a1-3)]GlcNAc
# Outline: as §1
# [17] = target: Fuc(a1-2)Gal(b1-4)[Fuc(a1-3)]GlcNAc(b1-3)Gal(b1-4)[Fuc(a1-3)]GlcNAc(b1-3)Gal(b1-4)[Fuc(a1-3)]GlcNAc
# Outline: as §1
# [18] = target: Fuc(a1-2)Gal(b1-4)[Fuc(a1-3)]GlcNAc(b1-3)GalNAc
# Outline: as §1
# [19] = target: Fuc(a1-2)Gal(b1-4)[Fuc(a1-3)]GlcNAc(b1-3)[Neu5Ac(a2-6)Gal(b1-4)GlcNAc(b1-6)]Gal(b1-4)Glc
# Outline: as §1
# [20] = target: Fuc(a1-2)Gal3S(b1-4)GlcNAc
# Outline: as §1
# [21] = target: Fuc(a1-2)Gal6S(b1-3)GlcNAc
# Outline: as §1
binder,measurement,setting,value
LngA (Escherichia coli) (protein) MLSVYNRTQKFKAEARKKIAKYHELRKQRGMSLLEVIIVLGIIGTIAAGVVILAQRAFDSRAVTDLVTNTNTVRVRMKDAYQRDGKYPDFVDPLSLTANTIKTDTSGIPAAQLVQLGKITPDEVRNNISGDFIAIGGALTSNGAQVKKGFAIELNGLSQEQCRSILGQVGNNWEYVAIGTSASGSYAMTATGVDMSVAASTTVLRSLGNNGQTTLTADKILSTCTAQVNSITLGSR,glycan array binding signal (z-score),Fuc(a1-2)Gal(b1-4)Glc6S,-0.327
same,glycan array binding signal (z-score),Fuc(a1-2)Gal(b1-4)GlcNAc,-0.177
same,glycan array binding signal (z-score),[1],0.35
same,glycan array binding signal (z-score),[2],0.242
same,glycan array binding signal (z-score),[3],1.39
same,glycan array binding signal (z-score),[4],0.383
same,glycan array binding signal (z-score),[5],-0.462
same,glycan array binding signal (z-score),[6],-0.248
same,glycan array binding signal (z-score),[7],-0.415
same,glycan array binding signal (z-score),[8],-0.376
same,glycan array binding signal (z-score),[9],-0.186
same,glycan array binding signal (z-score),[10],-0.563
same,glycan array binding signal (z-score),[11],0.251
same,glycan array binding signal (z-score),[12],-0.298
same,glycan array binding signal (z-score),[13],-0.106
same,glycan array binding signal (z-score),[14],-0.231
same,glycan array binding signal (z-score),[15],0.84
same,glycan array binding signal (z-score),[16],-0.488
same,glycan array binding signal (z-score),[17],-0.414
same,glycan array binding signal (z-score),[18],0.215
same,glycan array binding signal (z-score),[19],-0.382
same,glycan array binding signal (z-score),[20],-0.444
same,glycan array binding signal (z-score),[21],-0.411
